PMC4428439, “Anti-adaptors use distinct modes of binding to inhibit the RssB-dependent turnover of RpoS (σ^S) by ClpXP” (Frontiers in Molecular Biosciences, 2015)

Biological target: T1, RssB, full-length, untagged, purified (E. coli, UniProt P0AEV1 1-337)
T1 construct: RssB (SprE), adaptor protein of ClpXP, E. coli; residues 1-337 by the printed domain limits; Monomeric and dimeric RssB were separated by preparative SEC; degradation assays used monomeric RssB; also called SprE; full-length RssB; source: E. coli, Ub-fusion system, purified (IMAC, preparative SEC)
T1 sequence (looked up): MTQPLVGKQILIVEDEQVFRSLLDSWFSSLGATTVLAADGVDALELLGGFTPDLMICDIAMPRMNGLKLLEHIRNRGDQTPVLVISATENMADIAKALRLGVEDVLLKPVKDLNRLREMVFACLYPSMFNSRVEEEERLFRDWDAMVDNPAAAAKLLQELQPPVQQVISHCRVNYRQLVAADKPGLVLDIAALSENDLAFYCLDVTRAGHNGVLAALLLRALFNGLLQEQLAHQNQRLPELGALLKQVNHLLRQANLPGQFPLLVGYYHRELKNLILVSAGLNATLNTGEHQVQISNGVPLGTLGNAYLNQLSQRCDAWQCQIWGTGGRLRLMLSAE
Test: SEC; Superdex 200; σ^S preincubated with RssB (+AcP), IraD then added to the preformed complex; fractions on SDS-PAGE, σ^S quantified with GelEval; GF buffer
Settings: both partners purified

B1: σ^S (RpoS), untagged, purified (natural protein)
chain: not shown
notes: RpoS (σ^S, σ^38), RNA polymerase sigma factor, E. coli; also called σ^38; SigmaS; source: E. coli, Ub-fusion system, purified (IMAC, SEC)
  binding result: binds
